{
  "source": "the RNAGym collection of RNA variant scans (doi:10.7554/elife.90254)",
  "parents": {"B1": {"name": "OR4K15 (parent)", "chain": "GUUAACGGUCAUAGGCCAUGGAAACUAGGAGCACCAUUUCGCUGCCAGUGAAGAAAUGAACAAAGAAAAUCUGGGCCAGGCAGGCAUCAAAAGAAAUAGUCUUGCGCUCAACCAGAAAGUCUGUAAUCAUUUUAAGGGUA"}},
  "note": "Read counts are not given, so values of variants with three or more changes are uncertain.",
  "data": [
    {"variants_of": "B1", "experiment": "self-cleavage, relative activity (ratio to wild type); higher = more cleavage; in vitro, sequencing; the parent is a self-cleaving ribozyme", "values": [
      {"variant": "GUUAACGGUCAUAGGCCAUGGAAACUAGGAGCACCUUUUCGCUGCCAGUGAAGAAAUGAACAAAGAAAAUCUGGGCCAGGCAGGCAUCAAAAGGAAUAGCCUUGCGCUCAACCAGAAAGUCAGUAAUCAUUUUAAGGGUA", "note": "[A36U A94G U100C U122A]", "self-cleavage": 1.72},
      {"variant": "GUUAACGGCCAUAGGCCAUGGGAACUAGGAGCACCAUUUCGCUGCCAGUGAAGGAAUGAACAAGGGAAAUCUGGGCCAGGCAGGCACCAAAAGAAAUAGUCUUGCGCUCAACCAGAAAGUCUGUAAUCAUUUUAAGGGUA", "note": "[U9C A22G A54G A64G A66G U87C]", "self-cleavage": 0.99},
      {"variant": "GUUAACGGUCAUAGGCCAUGGAAACUAGGAGCACCAUUUCGCUGCCAGUGAAGAAAUGAACAAAGAAAAUCUGGGCCAGGCUGGCACCAAAAGAUGUAGUCUUGCGCUCAACCAGAAAGUCUGUAAUCAUUUUAAGGGUA", "note": "[A82U U87C A95U A96G]", "self-cleavage": 0.06},
      {"variant": "GUUAACGGUCAUAGGCCAUGGACACUAGGAGCACCAUUUCGCUGCCAGUGAAGAAAUGAACAAAGAAAAUCUGGGCCAGGCAGGCAUCAAAAGGAAUAGUCAUGCGCUCAACCAGAAAGUCUGUAAUCAUUUUAAGGGUA", "note": "[A23C A94G U102A]", "self-cleavage": 1.3},
      {"variant": "GUUAUCGGUCAUAGGCCGUGGAAUCUAGGAGCACCAUUUCGCUGCCAGUGAGGACAUGAACAAAGAAAAUCAGGGCCAGGCAGGCAUCAAAAGAAAUAGUCUUGCGCUCAACCAGAAGGUCUGUAAUCAUUUUAAGGGUA", "note": "[A5U A18G A24U A52G A55C U72A A118G]", "self-cleavage": 0.18},
      {"variant": "GUUAACGGUCAUAGGCCAUGGAAUCUAGGAGCACCAUUUCGCUGCCAGUGGAGAAAUGAACAGAGAAGAUCUGGGCCAGGCAGGCAUCAAAAGAAAUAGUCUUGCGCUCAACCAGAAAGUCUGUAAUCAUUUUAAGGGUA", "note": "[A24U A51G A63G A68G]", "self-cleavage": 0.98},
      {"variant": "GUUAACGGUCAUAGGCCAUGGAAACUAGGAGCACCAUUUCGCAGCCAGUGGAGAAAUGAACAAAGAAAAUCUGGGCCAGGCAGGCAUCAAGAGAAAUAGUCUUGCGCUCAACCAGAAAGUCUGUAAUCAUUUUAAGGGUA", "note": "[U43A A51G A91G]", "self-cleavage": 1.56},
      {"variant": "GUUAACGGUCAUAGGCCAUGGAAACUAGGAGCACCAUUUCGCUGCCAGUGAAGAAACGAACAAAGAAAACCUGGGCCAGGCAGGCAUCAAAAGAAAUAGUCUCGCGCUCGACCAGAAAGUCUGUAAUCAUUUUAAGGGUA", "note": "[U57C U70C U103C A110G]", "self-cleavage": 0.01},
      {"variant": "GUUAACGGUCAUAGGCCAUGGAAACUAGGAGCACCAUCUCGCUGCCAGUGAAGAAAUGAACAAAGAAAAUCUGGGCCAGGCAGGCACCAUAAGAAAUAGUCUUGCGCUCAACCAGAAAGUCUGUAAUCAUUUUAAGGGUA", "note": "[U38C U87C A90U]", "self-cleavage": 1.41},
      {"variant": "GUUAACGGUCAUAGGCCAUGGAAACUAGGAGCACCAUUUCGCAGCCAGUGAAGAAAUGAACAAAGAAAAUCUGGGCCAGGCGGGCAUCAAGAGAAAUAGUCUUGCGCUCAACCAGAAAGCCUGUAAUCAUUUUAAGGGUA", "note": "[U43A A82G A91G U120C]", "self-cleavage": 0.06},
      {"variant": "GUUAACGGUCAUAGGCCAUGGAGACUAGGAGCACCAUUUCGCUGCCAGUGAAGAAAUGAACAAAGAAAUCCCGGGCCAUGCAGGCAUCAAAAGAAAUAGUCUUGCGCUCAACCAGAAAGUCUGUAAUCAUUUUAAGGGUA", "note": "[A23G A69U U70C U72C G79U]", "self-cleavage": 0.18},
      {"variant": "GUUAACGGUCAUAGGCCAUGGAAACUAGGAGCACCAUUUCGCUGCCAGGGAAGAAAUGAACAAAGAAAAUCCGGGCCAGGCAGGCAUCAAAAGAAAUAGUCUUGCGCUCAACCAGAGAGUCUGUAAUCAUUUUAAGGGUA", "note": "[U49G U72C A117G]", "self-cleavage": 0.18},
      {"variant": "GUUAACGGUCAUAGGCCAUGGAAACUGGGAGCACCAUUUCGCUGCCAGUGAAGAAAUGAACGAAGAAAAUCUGAGCCAGGCAGGCAUCAAAAGAAAUAGUCUUGCGCUCAACCAGAAAGUCUGUAAUCAUUUUAAGGGUA", "note": "[A27G A62G G74A]", "self-cleavage": 0.18},
      {"variant": "GUUAACGGUCAUAGGCCAUGGAAACUAGGAGCACCAUUUCGCUGCCAGUGAAGAAAUGAACAAAGUAAAUCUGGGCCAGGCAGGCAUCAAAAGAAAUAGUCUUGCGCUCAACCAGAGGGUCUGAAAUCAUUUUAAGGGUA", "note": "[A66U A117G A118G U124A]", "self-cleavage": 0.71},
      {"variant": "GUUAACGGUCAUAGGCCAUGGAAACUAGGAGCACCAUUCCGCUGCCAGUGAAGAAAUGAACAAAGAAAAUCUGGGCCAGGCAGGCAUCAAAAGAAAUAGUCUUGCGCCCAACCAGAAUGUCUGUAAUCAUUUUAAGGGUA", "note": "[U39C U108C A118U]", "self-cleavage": 0.01},
      {"variant": "GACAACGGUCAUAAGCCAUGGAAACUAGGGGCACCAUUUCGCUGCCAGUGAAGAAAUGAACAAAGAAAAUCUGGGCCAGGCAGGCAUUAAAAGAAAUAGUCUUGCGCUCAACCAGGAAGUCUGUAAUCAUUUUAAGGGUA", "note": "[U2A U3C G14A A30G C88U A116G]", "self-cleavage": 0.52},
      {"variant": "GUUAACGGUCAUAGGCCACGGAAACUAGGAGCACCAUUUCGCUGCCAGUGAAGGAAUGAACAAAGAAAAUCUGGGCCAGGCGGGCAUCAAAAGAAAUAGCCUUGCGCCCAACCAGAAAGUCUGUAAUCAUUUUAAGGGUA", "note": "[U19C A54G A82G U100C U108C]", "self-cleavage": 0.02},
      {"variant": "GUUAGCGGUCAUAGGCCAUGGGAACUAGGAGCACCAUUUCGCUGCCAGUGAAGAAAUGAACAAAGAAAAUCUGGGCCAGGCAGGCAUCAAAAGAAAUAGUCUUGCGCUCAACCGGAAAGUCUGUAGUCAUUUUAAGGGUA", "note": "[A5G A22G A114G A126G]", "self-cleavage": 0.24},
      {"variant": "GUUAACGGCCAUAGGCCAUGGAAACUAGGAGCACCGUUUCGCUGCCAGUGGAGAAAUGAACAAAGAAAAUCUGGGCCAGGCAGGCAUCAGAAGAAAUAGUCUUGCGCUCAACCAGAAAGUCUGUAAUCAUUCUAAGGGUA", "note": "[U9C A36G A51G A90G U132C]", "self-cleavage": 1.87},
      {"variant": "GUUAACGGUCAUAGGCCGUGGAAACUAGGAGCACCACUUCGCUGUCAGUGAAGAAAUGAACAAAGAGAAUCUGGGCCAGGCAGGCAUCAAAAGAAAUAGUCUUGCGCUCAACCAGAAAGUCUGUAAUCAUUUUAAGGGUA", "note": "[A18G U37C C45U A67G]", "self-cleavage": 1.16}
    ]}
  ]
}
